# Test results as given in article PMC12040169 (PLOS Biology, 2025).
# Where two headings read alike, the source gives them in different places. The list shows a part of the results.
# Tested on: T1, C. trachomatis L2/434/Bu expressing GFP (CTL2-GFP)
# T1 construct: L2/434/Bu GFP intracellular growth in HeLa cells
# Set-up: species or system HeLa; C. trachomatis total inclusion area by high-content imaging, normalised to DMSO
# Method in brief: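 After bulk GFP and resorufin fluorescence reads, cells were fixed, stained with Hoechst and imaged by high-content microscopy. Inclusion area and number (GFP) stood in for chlamydial growth, nuclei count (Hoechst) for host cell viability. MICs were derived as for the bulk readout.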
# [1] = total inclusion area; 28.5 h, 10 µM; inhibitor
smiles,measurement,setting,value
Cc1[nH]c2c(C)ccc(C)c2c1CC(=O)N1[C@@H](c2ccccc2F)C[C@@H]2NC(=O)CCC[C@H]21 [CBK286011],% of control remaining,[1],125.638
Brc1ccc(CSc2ncn[nH]2)cc1 [CBK027819],% of control remaining,[1],100.506
CC(=O)Nc1ccc(CNC(=O)c2cccnc2OCC(F)(F)F)cc1 [CBK305682],% of control remaining,[1],32.3871
Cc1c(C(=O)NC(=S)Nc2ccc(O)c(-c3nc4ccccc4s3)c2)oc2ccccc12 [CBK264223],% of control remaining,[1],105.704
COCCN1C(=O)C2(CC(=O)N(CC3CCCCC3)C2=O)c2ccccc21 (centres unmarked) [CBK075355],% of control remaining,[1],98.8488
Cc1ccc(C(=O)Nc2cccc(-n3c(C)nc4ccccc4c3=O)c2)cc1 [CBK287725],% of control remaining,[1],107.38
COc1ccc(C(=O)N2CCC3(CCCN(CCCn4c(=O)[nH]c5ccccc54)C3)C2)cc1OC (centres unmarked) [CBK132856],% of control remaining,[1],96.0523
Clc1ccc(COc2nccnc2OCCOc2ccccc2)cc1Cl [CBK161853],% of control remaining,[1],82.1113
CCN(CC(=O)NCc1ccc(F)cc1)S(=O)(=O)c1c(C)n[nH]c1C [CBK306074],% of control remaining,[1],74.0704
CCCCOc1ccc(C(=O)N/C(=C/c2ccc(OC)cc2)C(=O)O)cc1 [CBK300490],% of control remaining,[1],91.6418
Cc1ccc(C)c(OCC(=O)Nc2ccccc2C(=O)N2CCN(C)CC2)c1 [CBK269924],% of control remaining,[1],96.1007
CCOC(=O)C1CCN(C(=O)c2c(-c3ccccc3)noc2C)CC1 [CBK158704],% of control remaining,[1],116.703
O=C(N[C@@H](Cn1cc(F)c(=O)[nH]c1=O)C(=O)O)C1CCCC1 [CBK289660],% of control remaining,[1],103.657
Cn1ncc2c1CCCN(C(=O)Cc1ccc(Cl)cc1)C2 [CBK285231],% of control remaining,[1],107.896
COc1cc(CNC(C)c2ccccc2)ccc1OCC(N)=O (centres unmarked) [CBK269982C],% of control remaining,[1],78.2168
COc1ccc(Oc2nccnc2N2CCN(CCc3ccccn3)CC2)cc1OC [CBK083067T],% of control remaining,[1],90.0499
Cc1[nH]c2ccc(CNC(=O)Cn3ccnc3C(C)C)cc2c1C [CBK281540],% of control remaining,[1],88.0941
O=C(CNC(=O)c1ccccc1)OCC(=O)c1ccc(Cl)c(Cl)c1 [CBK261611],% of control remaining,[1],88.803
CC1CCCC(C)N1c1nn(C)c(=O)[nH]1 (centres unmarked) [CBK019114],% of control remaining,[1],51.0543
O=C1N[C@]2(CCc3ccccc31)CN(Cc1ccsc1)C[C@H]2CO [CBK284793],% of control remaining,[1],79.8637
CC1CCc2c(sc(NC(=O)c3cccs3)c2C(=O)N(C)C)C1 (centres unmarked) [CBK307100],% of control remaining,[1],40.1127
Clc1ccc(COc2nccnc2OC2CCN(CC3CC3)CC2)cc1Cl [CBK083123T],% of control remaining,"total inclusion area, 28.5 h, 10 µM, inhibitor",66.2895
Cc1nc(C2CCN(Cc3cccc(F)c3)CC2)ncc1C(=O)Nc1ccc(F)cc1 [CBK285668],% of control remaining,[1],96.5207
CC(C)c1cc(C(=O)N(CCO)CC2CC3C=CC2C3)n(C)n1 (centres unmarked) [CBK282164],% of control remaining,[1],99.2299
Cc1ncsc1C(=O)N1CCN(Cc2ccco2)C[C@@H]1C(C)C [CBK285486],% of control remaining,[1],95.7129
Cc1ccc(NC(=O)NC(=O)C2CCN(CCCc3ccc(F)cc3)CC2)cc1Cl [CBK035057],% of control remaining,[1],92.8848
CCc1cc2c(NC(C(=O)O)C(C)C)ncnc2s1 (centres unmarked) [CBK265349],% of control remaining,[1],99.628
CN1CCN(CCC(=O)N/N=C/c2ccccc2O)CC1 [CBK261497],% of control remaining,[1],108.483
CCC1(C)CC(C(N)=S)CCO1 (centres unmarked) [CBK008954],% of control remaining,[1],105.74
CN(C)C(=O)Cc1ccc(-c2ccccc2)cc1 [CBK012162],% of control remaining,[1],52.2899
Cc1cn2c(=O)c(C(=O)Nc3ccc(F)c(C(F)(F)F)c3)cnc2s1 [CBK287713],% of control remaining,[1],76.8644
CCc1ccc(OCC(=O)c2ccc(O)c(CN(C)C)c2O)cc1 [CBK264438C],% of control remaining,[1],113.572
O=C(CN1C(=O)c2ccccc2C1=O)Nc1ccccc1C(=O)N1CCN(c2ccccc2)CC1 [CBK269251],% of control remaining,[1],113.092
O=C1CC[C@@H](NCc2cccc(O)c2)[C@H](c2cc(F)cc(F)c2)N1 [CBK282909],% of control remaining,[1],96.5685
COc1ccccc1Oc1ccc(NS(=O)(=O)c2cccc(C(=O)O)c2)cc1 [CBK296728],% of control remaining,[1],118.136
NC(=O)C1CCN(CC(=O)Nc2cc(C(F)(F)F)ccc2Cl)CC1 [CBK269776],% of control remaining,[1],103.177
O=C(NCCO)c1ccc(-c2cnc3[nH]c(=O)n(C4CCOCC4)c3n2)cc1 [CBK065041],% of control remaining,[1],60.7186
c1cnc(OC2CCN(Cc3ccc4c(c3)OCO4)CC2)c(OCCN2CCOCC2)n1 [CBK082925T],% of control remaining,[1],63.5246
O=C(Cc1cccs1)N1CCC(n2nc(C3CC3)ccc2=O)CC1 [CBK284243],% of control remaining,[1],77.8237
O=C(C1CCCCC1)N1CCCC(c2cc3cccnc3[nH]2)C1 (centres unmarked) [CBK284938],% of control remaining,[1],69.1099
Cc1nc(Nc2ccc(Cl)cc2)nc(OC2CCNCC2)n1 [CBK024848],% of control remaining,[1],113.828
Cc1nc(CN2C(=O)CC(Cc3cnn(C)c3)C2=O)nc2ccccc12 (centres unmarked) [CBK305415],% of control remaining,[1],63.3587
Cn1c(=O)c2[nH]c(N3CCCCC3)nc2n(C)c1=O [CBK027630],% of control remaining,[1],59.7112
Cc1ccc(C(=O)/C=C\Nc2ccc(S(=O)(=O)Nc3cc(C)nc(C)n3)cc2)cc1 [CBK264384],% of control remaining,[1],38.4429
Cc1nn(C)cc1S(=O)(=O)N1CCC(c2cccc(Cc3ccccc3Cl)n2)CC1 [CBK286115],% of control remaining,[1],90.7637
Cc1ccc2cc(COC(=O)c3ccc(N4CCOCC4)nc3)c(Cl)nc2c1 [CBK295336],% of control remaining,[1],106.867
O=C(Cc1cc(F)cc(F)c1F)N1CCC(Sc2ccc(-c3ccccc3)cc2)CC1 [CBK131952],% of control remaining,[1],92.7559
CC1CCc2c(sc3ncnc(NC4CCN(CC(N)=O)CC4)c23)C1 (centres unmarked) [CBK305008],% of control remaining,[1],57.4016
CCCC/C=C/c1cnc2[nH]c(=O)n(CCc3cccnc3)c2n1 [CBK064496],% of control remaining,[1],89.061
OCCn1ncc2c(Nc3cccc(Cn4cncn4)c3)ncnc21 [CBK305965],% of control remaining,[1],39.1808
